According to PubChem BioAssay AID488969 (Vanderbilt High Throughput Screening Facility, 2010):
The full ranking holds about 110,000 compounds; the median of “z-score” is about -0.1, and the highest 2% start at about 2. This is one part of the list. The source made the active and inactive calls.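 Rule for the calls: active = z-score in the third read window above 3 or below -3; inactive = the rest.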

What follows are compounds tested against Metabotropic glutamate receptor 8 (Rattus norvegicus) (UniProt P70579) (assay: rat mGluR8 modulators via GIRK flux, primary screen, cell-based, thallium flux, HTS (AID 488969)). Conditions: HEK293 rat mGluR8, GIRK (G protein-gated inwardly rectifying potassium channel) thallium flux, FluoZin2; at 10 µM; stronger effect = higher value; submaximal glutamate (EC20) added with thallium.
UniProt P70579, sequence (P70579 whole entry, looked up): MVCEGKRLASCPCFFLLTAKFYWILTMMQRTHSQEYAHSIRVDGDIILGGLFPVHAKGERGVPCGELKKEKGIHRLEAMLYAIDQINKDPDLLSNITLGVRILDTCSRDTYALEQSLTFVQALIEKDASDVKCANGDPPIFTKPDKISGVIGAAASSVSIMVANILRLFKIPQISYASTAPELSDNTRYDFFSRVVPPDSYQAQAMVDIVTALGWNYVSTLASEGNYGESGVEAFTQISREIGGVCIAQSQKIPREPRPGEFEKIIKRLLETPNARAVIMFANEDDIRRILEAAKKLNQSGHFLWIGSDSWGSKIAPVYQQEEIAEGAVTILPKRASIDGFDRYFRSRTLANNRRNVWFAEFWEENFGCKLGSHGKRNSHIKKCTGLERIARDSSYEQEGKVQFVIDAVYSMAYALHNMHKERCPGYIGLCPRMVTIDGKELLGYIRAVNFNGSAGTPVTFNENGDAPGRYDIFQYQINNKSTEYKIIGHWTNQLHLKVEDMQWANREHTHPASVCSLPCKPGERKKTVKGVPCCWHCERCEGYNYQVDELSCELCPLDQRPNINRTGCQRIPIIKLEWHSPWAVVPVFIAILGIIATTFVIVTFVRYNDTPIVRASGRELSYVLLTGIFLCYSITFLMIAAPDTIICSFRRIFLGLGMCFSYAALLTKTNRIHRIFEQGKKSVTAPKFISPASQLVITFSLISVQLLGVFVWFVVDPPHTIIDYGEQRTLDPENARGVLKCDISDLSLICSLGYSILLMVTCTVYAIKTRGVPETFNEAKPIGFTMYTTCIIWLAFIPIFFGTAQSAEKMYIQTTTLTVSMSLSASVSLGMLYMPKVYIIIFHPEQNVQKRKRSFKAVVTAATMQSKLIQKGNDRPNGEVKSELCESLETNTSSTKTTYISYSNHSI
For O=C(c1cc2nc(-c3ccco3)cc(C(F)(F)F)n2n1)N1CCN(c2ccccc2)CC1, the z-score was -1. For COc1ccccc1NC(=O)N1CCCC1C(=O)NCc1ccc2c(c1)OCO2 (stereo not given), the z-score was -0.885. For O=C1NC(=NCc2ccccc2)S/C1=C\c1ccccc1, the z-score was -0.21. In the case of CCOC(=O)c1ccc(NC(=O)Cn2cc3c(n2)CCC(C)C3)cc1 (stereo not given), the z-score is reported as -0.0526. COc1ccc(CNC(=O)CN(Cc2ccc(C)cc2)S(=O)(=O)c2ccc(Cl)cc2)cc1 gave a z-score of 0.0059. CCC(C)NS(=O)(=O)c1ccc(OCC(=O)NCc2ccc3c(c2)OCO3)cc1 (stereo not given) was tested, and the z-score was -0.682. In the case of COc1ccc(OC)c(NC(=O)CS(=O)(=O)Cc2nc(-c3ccccc3C)oc2C)c1, the z-score is reported as -0.0629. With Cc1ccccc1CN1C2=NCCCN2c2ccccc21 the z-score was active: 3.26. Cc1ccc(-n2c(C)n[nH]c2=S)cc1C was tested, and the z-score was -0.141. CCOc1ccccc1OCCOCCOc1ccccc1[N+](=O)[O-] gave a z-score of -0.0536. In the case of O=[N+]([O-])c1ccc(C(=Nc2cccc3ccccc23)N2CCOCC2)cc1, the z-score is reported as -0.302. O=C(O)c1ccccc1C(=O)NCc1ccccc1 gave a z-score of 0.421. Compound O=C(CCC(=O)Nc1cccc2ccccc12)N/N=C/c1ccco1 has a z-score of -0.266. Compound CC1(C)CC(CC(=O)O)(c2ccc(F)cc2)CCO1 (stereo not given) has a z-score of 1.92. CC(NC(=O)CSc1ncccn1)c1ccccc1 (stereo not given) showed a z-score of -0.931. Work on CCOc1ccccc1C(=O)Nc1ccc(-c2nnc(-c3ccc(C)cc3)o2)cc1 yielded a z-score of 1.79. For O=C(COC(=O)CNS(=O)(=O)c1ccc2ccccc2c1)Nc1ccccc1Sc1ccccc1, the z-score was 0.0539. For COc1cccc(CNCCNC(=O)c2nonc2N)c1, the z-score was -0.554. For Nc1c(-c2ccccc2)c(CN2CCOCC2)nn1-c1ccc(F)cc1, the z-score was 0.285. In the case of Cc1cccc(NC(=S)N/N=C2\CC(C)(C)Oc3ccc(O)cc32)c1, the z-score is reported as 0.0264. Work on Cc1ccc(NC(=O)C2C(c3ccccc3)C2(Cl)Cl)c(C)c1 (stereo not given) yielded a z-score of -0.22. O=C(COc1ccc(Br)cc1CO)Nc1ccc(F)cc1 showed a z-score of -0.382. For Cc1cccc(N2CCN(S(=O)(=O)c3ccc4[nH]c(=O)c(=O)[nH]c4c3)CC2C)c1 (stereo not given), the z-score was 0.353. Work on Cc1ccc(N2CCN(/N=C/c3sccc3C)CC2)cc1 yielded a z-score of -0.0713. For Nc1c(C(=O)NCc2ccccc2)c2nc3ccccc3nc2n1-c1ccc2c(c1)OCO2, the z-score was -0.118. O=C(N/N=C/c1cn(-c2cccs2)nc1-c1ccccc1)c1ccccc1O was tested, and the z-score was 1.09. Work on C=C(C(=O)c1ccccc1)C(c1ccccc1)C(C)C(=O)c1ccccc1 (stereo not given) yielded a z-score of -0.212. In the case of Cc1noc(C)c1CSc1ccc(Br)cc1, the z-score is reported as 0.0287. Work on Cc1ccc(OCC(=O)Nc2ccc(F)cc2)cc1 yielded a z-score of -0.224. Cc1ccc(SCc2nc(-c3cccnc3)no2)cc1 showed a z-score of -0.199. Compound CN(C)CCNC(=O)Cc1c(C(=O)O)n(C)c2ccccc12 has a z-score of 0.0614. For COc1ccc(-c2cc(C(F)(F)F)c3c(=O)n(-c4ccccc4)[nH]c3n2)cc1, the z-score was -0.0603. CCOCC(=O)NCc1ccc2c(c1)OCO2 was tested, and the z-score was -0.437. Cc1cc(NC(=O)CSc2nc(-c3ccco3)cc(C(F)(F)F)n2)n(-c2ccccc2)n1 gave a z-score of -0.0747. Work on O=S(=O)(c1ccccc1)n1ccc2cccnc21 yielded a z-score of 0.511. O=C(Cn1nnc(-c2ccc3c(c2)OCO3)n1)N1CCOCC1 gave a z-score of 0.266. Compound CCc1cccc(C)c1NC(=O)C1CN(S(=O)(=O)c2ccccc2)CCN1S(=O)(=O)c1ccccc1 (stereo not given) has a z-score of -0.0323. O=C(Nc1ccc(-c2nc3cc(Cl)ccc3c(=O)o2)cc1)c1ccco1 showed a z-score of -0.405. COc1ccc(C2NCCn3cccc32)cc1 (stereo not given) showed a z-score of -0.113. C=CCOC(=O)C1=C(C)NC(SCC)=C(C#N)C1c1ccc(Cl)cc1 (stereo not given) showed a z-score of 0.285. For COC(=O)NCCOc1nc(N(C)C)nc(N(C)C)n1, the z-score was -0.0905. COc1ccc(Cl)cc1NC(=O)N(C)Cc1c(C)nn(C)c1C was tested, and the z-score was -0.146. COc1ccccc1-n1c(SCC(=O)Nc2ccccc2F)nc2[nH]ncc2c1=O showed a z-score of -0.434. O=C(Nc1ccc(Br)c2cccnc12)c1ccc(Cn2cc([N+](=O)[O-])cn2)o1 showed a z-score of -0.294. For CC(C)(C)c1ccc(-c2nnc3sc(-c4ccncc4)nn23)cc1, the z-score was 0.522. Work on O=S(=O)(c1ccc(-c2csc(-c3cccnc3)n2)cc1)N1CCCCC1 yielded a z-score of 0.0664. Compound CCOC(=O)c1c(C)[nH]c(C)c1C(=O)COC(=O)c1cc2ccccc2cc1OC has a z-score of -0.256. For Cc1ccccc1C(C(=O)NCc1ccccc1)N(Cc1ccco1)C(=O)c1ccccn1 (stereo not given), the z-score was -0.305. Work on Cc1cccc(-[n+]2c(C)cc(C)c3c(=O)[nH]c(=O)[nH]c32)c1 yielded a z-score of -0.392. Work on COc1ccc(-c2cccc(C(=O)NCC(=O)O)c2)cc1 yielded a z-score of 0.504. N#Cc1cccc(NC(=O)c2ccccc2C(=O)O)c1 was tested, and the z-score was -0.112. For O=C(CSc1nnc(SCc2ccccc2Cl)s1)N/N=C/c1c[nH]c2ccccc12, the z-score was -0.0227. COc1ccc(Cl)cc1N1C(=O)C2CCCN2C1c1cccc(F)c1 (stereo not given) showed a z-score of -1. CC1CCCN(C(=O)c2ccc(S(=O)(=O)N3CCC(c4nc5ccccc5s4)CC3)cc2)C1 (stereo not given) gave a z-score of -0.412. Work on CCN1C/C(=C\c2cccc(C)c2)c2nc3ccccc3c(C(=O)O)c2C1 yielded a z-score of 0.00601. Cc1ccc(NC(=O)CSCC(N)=O)cc1C was tested, and the z-score was 0.0691. With Cc1ccc(CNC(=O)/C=C/c2ccccc2Cl)cc1 the z-score was -0.124. CN(C(=O)Nc1ccccc1)C1CCS(=O)(=O)C1 (stereo not given) showed a z-score of 0.91. In the case of Cn1c2ccccc2n2c(=O)c(Cl)c(-c3ccccc3)c(C#N)c12, the z-score is reported as -0.222. In the case of Cc1cc(=O)oc2cc(OC(C)C(=O)O)c(Cl)cc12 (stereo not given), the z-score is reported as 0.678. With Oc1ccc(-c2n[nH]c(=S)n2-c2ccc3c(c2)OCCO3)c(O)c1 the z-score was -0.645. In the case of Cc1[nH][nH]c(=O)c1C(c1c(C)[nH][nH]c1=O)c1cn(Cc2ccc(F)cc2)c2ccccc12, the z-score is reported as -0.769. Compound CC1SC(c2ccc(Cl)cc2)NC1=O (stereo not given) has a z-score of -0.014. CC(=O)N1CCN(c2ccc(NCc3ccc(C(C)C)cc3)cc2)CC1 showed a z-score of 2.03. With COc1ccc(CCNC(=O)CCS(=O)(=O)c2ccc3c(c2)CCN3C(C)=O)cc1OC the z-score was -0.046. CC(C)(c1ccccc1)c1ccc(OCCn2cnc3ccccc3c2=O)cc1 gave a z-score of -0.307. Cc1occc1C(=O)NNC(=O)Nc1ccc(Cl)c(Cl)c1 was tested, and the z-score was -0.135. In the case of CCC(C)(C)n1nnnc1CN1CCN(c2nc3ccc(C)cc3cc2C#N)CC1, the z-score is reported as -0.229. Work on Cc1cc(C(F)F)n2nc(C(=O)Nc3cc(C)on3)nc2n1 yielded a z-score of 0.927. Compound COc1cc(NC(=O)CCn2c(=O)[nH]c3ccsc3c2=O)cc(OC)c1 has a z-score of 0.791.
